{"source": "the RNAGym collection of RNA variant scans (doi:10.7554/elife.90254)", "parents": {"B1": {"name": "OR4K15 (parent)", "chain": "GUUAACGGUCAUAGGCCAUGGAAACUAGGAGCACCAUUUCGCUGCCAGUGAAGAAAUGAACAAAGAAAAUCUGGGCCAGGCAGGCAUCAAAAGAAAUAGUCUUGCGCUCAACCAGAAAGUCUGUAAUCAUUUUAAGGGUA"}}, "note": "Read counts are not given, so values of variants with three or more changes are uncertain.", "data": [{"variants_of": "B1", "experiment": "self-cleavage, relative activity (ratio to wild type); higher = more cleavage; in vitro, sequencing; the parent is a self-cleaving ribozyme", "values": [{"variant": "GUUAACGGUCAUAGGCCAUGGAAACUAGGUGCACCAUUUCGCUGCCAGUGAAGAAAUGAACAAAGAAAAUCUGGGCCAGGCAGGCAUCAAAAGAGAUAGUCUUGCGCUCAACCAGAAAGUCUGUAAUCGCUUUAAGGGUA", "self-cleavage": 1.53}, {"variant": "GUUAACGGUCAUAGGCCAUGGAAACUAGGUGCACUAUUUCGCUGCCAGUGGAGAAAUGAACAAAGAAAAUCUGGGCCAGGCAGGCAUCAAAAGAAAUAGUCUUGCGCUCAACCAGAAAGUCUGUAAUUAUUUUAAGGGUA", "self-cleavage": 0.32}, {"variant": "GUUAACGGUCAUAGGCCAUGGAAACUAGGUGCACCAUUUCGCUGCCAGUGAAGAAAUGAACACUGAAGAUCUGGGCCAGGCAGGCACCAAAAGAAAUAGUCUUGCGCUCAACCAGAAAGUCUGUAAUCAUUUUAAGGGUA", "self-cleavage": 1.16}, {"variant": "GUUAACGGUCAUAGGCCAUGGAAACUAGGUGCACCAUUUCGCUGCCAGUGAAGAAAUGAACAAAGAAAAUCUGGGCCAGGCAGGCAUCAAAAGAAAUAGUCUUGCGCUCAAUCAGAAGGUCUGUAAUCAUUUUAAGGGUA", "self-cleavage": 0}, {"variant": "GUUAACGGUCAUAGGCCAUGGAAACUAGGUGCACCAUUUCGCUGCCAGUGAAAAAAUGACCAAAGAGAAUCUGGGCCGGGCAGGCAUCAAAAGAAAUAGUCUUGCGCUCGACCAGAAAGUCUGUAAUCAUUUUAAGGGUA", "self-cleavage": 0.03}, {"variant": "GUUAACGGUCAUAGGCCAUGGAAACUAGGUGCACCAUUUCGCUGCCAGUGAAGAAAUGAACAUAGAAAGUCUGGGCCAGGCAGGCAUCAAAAGAAAUAGUCUUGCGCUCAGCCAGAAAGUCUGUAAUCAUUUUAAGGGUA", "self-cleavage": 0.05}, {"variant": "GUUAACGGUCAUAGGCCAUGGAAACUAGGUGCACCAUAUCGCUGCCAGUGAAGAAAUGAGCAAAGAAAAUCUGGGCCAGGCAGGCAUCAAAAGAAAUAGUCUUGCGCUCGACCAGAAAGACCGUAAUCAUUUUAAGGGUA", "self-cleavage": 0.09}, {"variant": "GUUAACGGUCAUAGGCCAUGGAAACUAGGUGCACCAUUUCGCUGCCAGUGAAGAAAUGAACUAAGAAAAUCUGGGCCAGGCAGGCAUCAAAAGAAAUAGUCUUGCGCUCAACCAGAAGGUCUGUAAUCAUUUUAAGGGUA", "self-cleavage": 0.85}, {"variant": "GUUAACGGUCAUAGGCCAUGGAAACUAGGUGCACCAUUUCGCUGCCAGUGAAGAAAUGAACAAAGAAAAUCUGGGCCAGGCAGGCUUCAAAAGAAAUAGUCUUGCGCUCAACCAGAAAGUCUGUAACCAUUUUAAGGGUA", "self-cleavage": 1.62}, {"variant": "GUUAACGGUCAUAGGCCAUGGAAACUAGGUGCACCAUUUCGCUGCCAGUGAAGAAAUGAACAAAGAAAAUCUGGGCCAGGCAGGCAUCAAGAGAAAUAGUCUUGCGCUCAACCAGAAAGUCUGUAAUCAUCUUAAGGGUA", "self-cleavage": 1.07}, {"variant": "GUUAACGGUCAUAGGCCAUGGAAACUAGGUGCACCAUUUCGCUGCCAGUGAAGAAAUGAACAAAGAAAAUCUGGGCCAGGCAGGCAUCAAGAGAAAUAGUCUUGCGCUCAACCAGGAAGUCUGCAAUCAUUUUAAGGGUA", "self-cleavage": 0.31}, {"variant": "GUUAACGGUCAUAGGCCAUGGAAACUAGGUGCACCAUUUCGCUGCCAGUGAAGAAAUGAACAGAGAAAAUCUGGGCCAGGCAGGCAUCAAAAGGAAUAGUCUUGCGCUCAACCAGAAAGUCUGUAAUCAUUUUAAGGGUA", "self-cleavage": 1.42}, {"variant": "GUUAACGGUCAUAGGCCAUGGAAACUAGGUGCACCAUUUCGCUGCCAGUGAAGAAAUGAACAAAGAAAACCUGGGCCAGGCAGGCAUCAGAAGAAAUAGUCUUGCGCUCAACCAGAAAGUCUGUAAUCAUUUUAAGGGUA", "self-cleavage": 1.13}, {"variant": "GUUAACGGUCAUAGGCCAUGGAAACUAGGUGCACCAUUUCACUGCCAGUGAAGAAAUGAACAAAGAAAAUCUGGGCCAGGCAGGCAUCAAAAGAAAUAGUCUUGCGCACAACCAGAGAGUCUGUAAUCAUUUUAAGGGUA", "self-cleavage": 0.01}, {"variant": "GUUAACGGUCAUAGGCCAUGGAAACUAGGUGCACCAUUUCGCUGCCAGUGAAGAAAUGAACAAAGAAAAUCUGGGCCAGGCAGGCAUCAAAAGAAGUAGUCUUGCGCUCAACCAGAAAGUCUGUAAUCAUUUUAAGGGUU", "self-cleavage": 1.48}, {"variant": "GUUAACGGUCAUAGGCCAUGGAAACUAGGUGCACCAUUUCGCUGCCAGUGAAGAAAUGAACAAAGAAAAUCUGGGCCAGGCGGGCAUCAGAAGAAAUAGUCUUGCGCCCAACCGGAAAGUCUGUAAUCAUUUUAAGGGUA", "self-cleavage": 0.01}, {"variant": "GUUAACGGUCAUAGGCCAUGGAAACUAGGUGCACCAGUUCGCUGCCAGUGAAGAAAUGAGCAAAGAAAAUCUGGGCCAGGCAGGCAUCAAAAGAAAUAGUCUUGCGCUCAACCAGAAAGUCUGUAAUCAUUUUAAGGGUA", "self-cleavage": 0.32}, {"variant": "GUUAACGGUCAUAGGCCAUGGAAACUAGGUGUACCAUGUCGCUGCCAGUGAAGAAAUGAACUAAGAAAAUCUGGGCCAGGCAGGCAUCAAAAGAAAUAGUCUUGCGCUCAACCAGAAAGUCUGUAACCAUUUUAAGGGUA", "self-cleavage": 0.35}, {"variant": "GUUAACGGUCAUAGGCCAUGGAAACUAGGUGCACCAUUUCGCCGCCAGUGAAGAAAUGAACAAAGAAAAGCUGGGCCAGGCAGGCAUCAAAAGAAAUAGUCUUGCGCUCAACCAGAAAGUCUGUAAUCAUUUUAAGGGUA", "self-cleavage": 0.71}, {"variant": "GUUAACGGUCAUAGGCCAUGGAAACUAGGUGCACCAUUUCGCUGCCAGUGAAGAAAUGAACAAGGAAAAUCUGGGCCAGGCAGGCAUUAAAAGAAAUAGUCCUGCGCUCAACCAGAAAGUCUGUAAUCAUUUUAAGGGUA", "self-cleavage": 1.22}, {"variant": "GUUAACGGUCAUAGGCCAUGGAAACUAGGUGCACCAUUUCGCUGCCAGUGAAGAAAUAAACAAAGAAAGUCUGGGCCAGGCAGGCAUCAAAAGAAAUAGCCUUGCGCUCAACCAGUAAGUCUGUAAUCAUUUUAAGGGUA", "self-cleavage": 0.73}]}]}
